This is one part of the list.
B1: Q9UKT9 (peptide)
chain: FCCEVCGAIFTQKGNLLRHIKL
B2: Q9UKT9 (peptide)
chain: FECPICGRPFTQKGNLLRHIKL
B3: Q9UKT9 (peptide)
chain: FNCEICGHTFTQKGNLLRHIKL
B4: Q9UKT9 (peptide)
chain: FECPICGHNFTQKGNLLRHIKL
B5: Q9UKT9 (peptide)
chain: FVCPICGHFFTQKGNLLRHIKL
B6: Q9UKT9 (peptide)
chain: FRCEQCGAAFTQKGNLLRHIKL
B7: Q9UKT9 (peptide)
chain: FCCEICGHMFTQKGNLLRHIKL
B8: Q9UKT9 (peptide)
chain: FRCPQCGARFTQKGNLLRHIKL
B9: Q9UKT9 (peptide)
chain: FKCPICGRCFTQKGNLLRHIKL
B10: Q9UKT9 (peptide)
chain: FDCPICGHFFTQKGNLLRHIKL
B11: Q9UKT9 (peptide)
chain: FECDQCGAEFTQKGNLLRHIKL
B12: Q9UKT9 (peptide)
chain: FMCNQCGHGFTQKGNLLRHIKL
B13: Q9UKT9 (peptide)
chain: FWCNQCGAIFTQKGNLLRHIKL
B14: Q9UKT9 (peptide)
chain: FMCDICGAAFTQKGNLLRHIKL
B15: Q9UKT9 (peptide)
chain: LYCPICGFACTQKGNLLRHIKL
B16: Q9UKT9 (peptide)
chain: FRCDQCGALFTQKGNLLRHIKL
B17: Q9UKT9 (peptide)
chain: FDCPICGHGFTQKGNLLRHIKL
B18: Q9UKT9 (peptide)
chain: FKCDVCGAMFTQKGNLLRHIKL
B19: Q9UKT9 (peptide)
chain: LDCEICGFCCTQKGNLLRHIKL
B20: Q9UKT9 (peptide)
chain: FYCDQCGAYFTQKGNLLRHIKL
B21: Q9UKT9 (peptide)
chain: LSCPICGFECTQKGNLLRHIKL
B22: Q9UKT9 (peptide)
chain: LICPICGFTCTQKGNLLRHIKL
B23: Q9UKT9 (peptide)
chain: FNCPICGHVFTQKGNLLRHIKL
B24: Q9UKT9 (peptide)
chain: FECPICGRWFTQKGNLLRHIKL
B25: Q9UKT9 (peptide)
chain: FTCPICGHKFTQKGNLLRHIKL
B26: Q9UKT9 (peptide)
chain: FNCEQCGASFTQKGNLLRHIKL
B27: Q9UKT9 (peptide)
chain: FTCNQCGAGFTQKGNLLRHIKL
B28: Q9UKT9 (peptide)
chain: FSCEQCGARFTQKGNLLRHIKL
B29: Q9UKT9 (peptide)
chain: FMCEVCGAMFTQKGNLLRHIKL
B30: Q9UKT9 (peptide)
chain: FWCEQCGAIFTQKGNLLRHIKL
B31: Q9UKT9 (peptide)
chain: LHCNQCGFECTQKGNLLRHIKL
B32: Q9UKT9 (peptide)
chain: FLCPVCGAMFTQKGNLLRHIKL

Target: no compound (DMSO)
Experiment: log2 fold change of degron read counts, EGFP-low vs EGFP+ sorted cells; higher = lower degron-EGFP level without compound (poor expression or instability)
Settings: compound: DMSO control; 18 h
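Note: jurkat cells carrying a lentiviral library of mutant zinc finger degrons fused to EGFP plus mCherry, mCherry+ cells FACS sorted, degron abundance counted by next-generation sequencing.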

Question: For B1, which “log2 fold change of degron read counts” value is on record?
Answer: -0.723

Question: Which “log2 fold change of degron read counts” value does the source give for B2 here?
Answer: -0.589

Question: B3 was tested. Which “log2 fold change of degron read counts” value did it give?
Answer: -2.82

Question: B4 was tested. Which “log2 fold change of degron read counts” value did it give?
Answer: -0.87

Question: With B5 as the sequence, how does the “log2 fold change of degron read counts” value read?
Answer: 0.26

Question: For B6, which “log2 fold change of degron read counts” value is on record?
Answer: -2.38

Question: Which “log2 fold change of degron read counts” value does the source give for B7 here?
Answer: -0.854

Question: For B8, which “log2 fold change of degron read counts” value is on record?
Answer: -0.236

Question: Which “log2 fold change of degron read counts” value does the source give for B9 here?
Answer: -0.178

Question: With B10 as the sequence, how does the “log2 fold change of degron read counts” value read?
Answer: 0.173

Question: For B11, which “log2 fold change of degron read counts” value is on record?
Answer: -0.984

Question: How did the “log2 fold change of degron read counts” value turn out when B12 was run?
Answer: -0.61

Question: B13 was tested. Which “log2 fold change of degron read counts” value did it give?
Answer: 1.24

Question: Which “log2 fold change of degron read counts” value does the source give for B14 here?
Answer: -0.975

Question: For B15, which “log2 fold change of degron read counts” value is on record?
Answer: 0.324

Question: Which “log2 fold change of degron read counts” value does the source give for B16 here?
Answer: -2.04

Question: For B17, which “log2 fold change of degron read counts” value is on record?
Answer: -0.665

Question: With B18 as the sequence, how does the “log2 fold change of degron read counts” value read?
Answer: -1.75

Question: Which “log2 fold change of degron read counts” value does the source give for B19 here?
Answer: -0.172

Question: Which “log2 fold change of degron read counts” value does the source give for B20 here?
Answer: 0.171

Question: For B21, which “log2 fold change of degron read counts” value is on record?
Answer: -0.0873

Question: With B22 as the sequence, how does the “log2 fold change of degron read counts” value read?
Answer: 0.597

Question: B23 was tested. Which “log2 fold change of degron read counts” value did it give?
Answer: -0.373

Question: B24 was tested. Which “log2 fold change of degron read counts” value did it give?
Answer: 0.186

Question: B25 was tested. Which “log2 fold change of degron read counts” value did it give?
Answer: -0.158

Question: For B26, which “log2 fold change of degron read counts” value is on record?
Answer: -1.92

Question: With B27 as the sequence, how does the “log2 fold change of degron read counts” value read?
Answer: -0.763

Question: For B28, which “log2 fold change of degron read counts” value is on record?
Answer: -2.05

Question: For B29, which “log2 fold change of degron read counts” value is on record?
Answer: -1.14

Question: Which “log2 fold change of degron read counts” value does the source give for B30 here?
Answer: 0.478

Question: Which “log2 fold change of degron read counts” value does the source give for B31 here?
Answer: -0.602

Question: B32 was tested. Which “log2 fold change of degron read counts” value did it give?
Answer: -0.0801

Reference: the supplement of paper PMC12645437, “Orthogonal IMiD-Degron Pairs Induce Selective Protein Degradation in Cells” (ACS Chemical Biology, 2025)
